Screen size: about 360,000 compounds; about 7,500 (2.1%) were called active. Inconclusive results, whose numbers are uncertain, are shown with a selection of clear calls. Calls follow the shape of the dose curve; as a rule, active = well fitted cell-killing curve with a large enough effect; inconclusive = small, poorly fitted or top-dose-only effect, or effect the other way, or another doubt; inactive = no such curve, though single readings can be large or run the other way. No potency is given beside an inconclusive call; the fits are too rough.
Assay: qHTS for induction of synthetic lethality in tumor cells producing 2HG: qHTS for the HT-1080-IDH1KD cell line;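 as to activity, negative = toxicity: 0% = DMSO wells and -100% = cell-free medium wells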
Details: HT-1080 IDH1 knockdown viability, ATP luminescence, 48 h; activity, negative = toxicity: at 46.1 µM (top of the series) unless noted
Outline: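 After a 2 h attachment period, IDH1KD HT-1080 cells took pin-transferred compound for 48 h at 37 °C; ATP-based luminescence after 10 min room-temperature reagent incubation reported viability.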
Potency is read from the fitted curve at half-maximal effect; tags tell the direction and shape of the fitted curve.

Structure (SMILES)	Potency	activity, negative = toxicity
COc1ccc(/C=N/NC(=S)Nc2cc(S(=O)(=O)N3CCOCC3)ccc2N2CCOCC2)cc1O	active: 16.4 µM	–
CN1CCN(c2nnc(-c3cccs3)c3ccccc23)CC1	–	inactive: -4.92%
CCc1cc2c(=O)c(-c3ccc4c(c3)OCCO4)coc2c(CN2CCCCC2C)c1O (configuration not stated)	inconclusive [cytotoxic, single point]	–
COc1ccc(CC2(CO)CCN(Cc3nc(C(C)C)cs3)CC2)cc1	–	inactive: 0%
CCc1cc2c(Sc3nc4ccccc4s3)ncnc2s1	inconclusive [cytotoxic, single point]	–
O=C(COc1ccc(S(=O)(=O)NC2CCCCC2)cc1Cl)N1CCN(c2ccccc2)CC1	inconclusive [cytotoxic, single point]	–
Clc1cccc(NCc2nnc(SCc3ccc(Cl)cc3Cl)o2)c1	inconclusive [cytotoxic, single point]	–
CCCCOc1ccccc1NC(=O)Cn1c(-c2nonc2N)nc2ccccc21	active: 1.3 µM	–
Cc1ccc2[nH]c(C(F)(F)F)cc(=O)c2c1	inconclusive [cytotoxic, partial curve]	–
O=[N+]([O-])c1ccc(C[n+]2cccc3ccc4cccnc4c32)cc1	inconclusive [cytotoxic, partial curve, poor fit]	–
CN(C)c1c([N+](=O)[O-])cc(N2C(=O)C=CC2=O)cc1[N+](=O)[O-]	–	inactive: 0.495%
COc1ccc(S(=O)(=O)N2CCC(C(=O)NCc3cccnc3)CC2)cc1OC	–	inactive: 22.1%
Cc1cc(C)n(-c2nc3ccccc3c(=O)n2OCC(=O)OCc2ccccc2)n1	inconclusive [cytotoxic, partial curve]	–
O=C(CC1(O)C(=O)Nc2cc(Cl)cc(Cl)c21)c1ccncc1 (configuration not stated)	inconclusive [cytotoxic, single point]	–
Cc1cc(NCCCCO)n2c(nc3ccccc32)c1C#N	inconclusive [cytotoxic, full curve, poor fit]	–
COc1ccc(S(=O)(=O)N2c3cc(C)ccc3OCC2C(C)(C)C)cc1 (configuration not stated)	active: 5.8 µM	–
COc1cccc(NC(=O)Nc2nc(SC)ns2)c1	inconclusive [cytotoxic, single point]	–
Nc1ccccc1C(=O)NNc1ncc(C(F)(F)F)cc1Cl	inconclusive [cytotoxic, single point]	–
CCOC1(OCC)C(c2ccc(Cl)cc2)C(C#N)(C#N)C1(OCC)OCC (configuration not stated)	inconclusive [cytotoxic, single point]	–
O=C(Cn1c(C(=O)N2CCN(C3CCCCC3)CC2)cc2sccc21)c1ccccc1	inconclusive [cytotoxic, single point]	–
Oc1cccc(NC(=S)N=Nc2c(O)[nH]c3ccccc23)c1	inconclusive [cytotoxic, single point]	–
O=C(CSCc1ccccc1)Nc1ccc2c(c1)OCO2	–	inactive: -2.59%
CCCOc1ccc(F)cc1-c1cc(C(=O)Nc2ccc(C(C)C)cc2)[nH]n1	active: 23.1 µM	–
Cc1cc(O)ccc1Nc1nc(-c2cccs2)cs1	inconclusive [cytotoxic, single point]	–

Structure (SMILES)	Potency	activity, negative = toxicity
Cc1nc(CS(=O)c2ccc(Cl)cc2)cc(NCc2ccc(Cl)cc2Cl)n1 (configuration not stated)	inconclusive [cytotoxic, partial curve]	–
Cc1ccccc1C(=O)Nc1ccc(C(=O)N/N=C/c2ccc(O)c(Br)c2)cc1	–	inactive: -14.5%
O=C1CCCCC1CCc1ccncc1 (configuration not stated)	–	inactive: 6.81%
COc1ccc(CN2C(=O)c3ccccc3C(/C=N/OCc3ccc(Cl)cc3)C2=O)cc1 (configuration not stated)	inconclusive [cytotoxic, single point]	–
Cc1ccc(-c2nn(-c3ccccc3)cc2/C=N/n2c(-c3cccs3)n[nH]c2=S)cc1	inconclusive [cytotoxic, single point]	–
Cc1oncc1C(=O)Nc1ccc(C(F)(F)F)cc1	inconclusive [cytotoxic, single point]	–
CCOC(=O)NCCc1ccc(OC)cc1	–	inconclusive: 30.8%
O=S(=O)(Nc1ccc(C(O)(C(F)(F)F)C(F)(F)F)cc1)c1cccc2cccnc12	inconclusive [cytotoxic, single point]	–
COc1ccc(NC(=O)c2ccc(NC(=O)c3cccs3)cc2)cc1	inconclusive [cytotoxic, single point]	–
CC(=O)NC1C(OCc2ccccc2)OC2COC(c3ccccc3)OC2C1OCC(=O)O (configuration not stated)	inconclusive [rising, partial curve]	–
COC(=O)c1ccc(COc2ccccc2/C=N/NC(=O)c2cccnc2)cc1	inconclusive [cytotoxic, single point]	–
Cc1oc(-c2cccc(Cl)c2)nc1CSCC(=O)O	–	inactive: 0.389%
CCOC(=O)c1c2c(n(-c3ccc(OC)cc3)c1C)C(=O)C(=O)c1ccccc1-2	active: 8.2 µM	–
c1ccc(N2CCN(CCc3nnc4n3CCCCC4)CC2)cc1	inconclusive [rising, partial curve]	–
COc1ccc(C(=O)CCN2CCC(C)CC2)cc1	inconclusive [cytotoxic, single point]	–
O=C(c1cnn2c(C(F)(F)F)cc(-c3ccco3)nc12)N1CCc2ccccc2C1	–	inactive: 8.51%
Cc1cc(NC(=O)c2cc3n(n2)C(C(F)(F)F)CC(c2ccco2)N3)no1 (configuration not stated)	inconclusive [cytotoxic, single point]	–
CCOc1ccc2[nH]c(=S)sc2c1	inconclusive [cytotoxic, single point]	–
CCCCC[C@H](C)N1C[C@@H](COCc2ccccc2)Oc2cc(N3CC[C@H](O)C3)ccc2S1(=O)=O	inconclusive [cytotoxic, single point]	–
Nc1cc([N+](=O)[O-])ccc1OCc1ccccc1	–	inactive: -15.2%
CCOc1ccccc1CN1CCC(Oc2cccc(C(=O)NCCOC)c2)CC1	–	inactive: -9.75%
C/C(=N/Nc1nc(C)c(C)s1)c1cccc([N+](=O)[O-])c1	–	inactive: -2.76%
COCCCNC(=O)/C(C#N)=C/c1cc(C)[nH]c1C	–	inactive: -13.2%
Cc1cc(-c2ccccc2)nc(N/N=C/c2ccc(O)cc2O)n1	active: 2.06 µM	–

Structure (SMILES)	Potency	activity, negative = toxicity
O=C(c1ccccc1)c1ccc(C(=O)N2CCOCC2)cc1	–	inactive: 13.8%
N#Cc1ccsc1NC(=O)CN1CCN(Cc2ccccc2)CC1	–	inactive: -0.973%
Clc1cccc(-c2ccc(-c3nc4ccccn4c3NCc3ccccc3)cc2)c1	inconclusive [cytotoxic, partial curve]	–
COc1ccc(/C=C(\NC(=O)c2ccccc2)C(=O)NCc2ccco2)cc1OC	–	inactive: 17.9%
COc1ccc(C(=O)C[n+]2cn(C(F)F)c3ccccc32)c(F)c1	inconclusive [cytotoxic, partial curve]	–
Cc1cc(NC(=O)CCCN2C(=O)c3cccc4cccc(c34)C2=O)no1	inconclusive [rising, partial curve]	–
O=C(N/N=C/c1ccc[nH]1)c1cc(-c2cccs2)nc2ccccc12	inconclusive [cytotoxic, partial curve]	–
COc1cccc(CNC(=O)Cc2ccc(-c3ccccc3)cc2)c1	active: 18.4 µM	–
COc1ccc(-c2c(C)oc3c(CN4CCN(C)CC4)c(O)ccc3c2=O)cc1	–	inactive: 1.34%
O=c1ccc2ccc(O)cc2o1	inconclusive [cytotoxic, single point]	–
Cc1ccc(C2C3=C(CCCC3=O)N=C3c4ccccc4C(=O)C32)cc1 (configuration not stated)	inconclusive [cytotoxic, single point]	–
Cc1ccc2nc(-c3ccc(F)cc3)c(Cc3cccc(Cl)c3)n2c1	inconclusive [cytotoxic, single point]	–
CCOc1cccc(NC(=O)C2CCCN(S(=O)(=O)c3ccc(OC)cc3)C2)c1 (configuration not stated)	inconclusive [cytotoxic, single point]	–
OC(c1cccc(Cl)c1)c1ncc(-c2ccccc2Cl)[nH]1 (configuration not stated)	–	inactive: -13.8%
COc1ccc(S(=O)(=O)N2CCCC(C(=O)Nc3ccc(NC(=O)c4ccccn4)cc3)C2)cc1 (configuration not stated)	inconclusive [cytotoxic, single point]	–
COc1ccc(NC(=O)Nc2nc(C(N)Cc3ccc(C(F)(F)F)cc3)cs2)cc1 (configuration not stated)	inconclusive [cytotoxic, single point]	–
COC(=O)[C@]12CCCCC=C1N(CCC1=CCCCC1)C(=O)[C@H](CC(=O)NCc1cccc(C(F)(F)F)c1)C2	inconclusive [cytotoxic, single point]	–
CCOC(=O)C(=Cc1c[nH]c2ccc(S(=O)(=O)N(C)C)cc12)C(=O)OCC	inconclusive [cytotoxic, partial curve]	–
CC1(C(=O)NS(=O)(=O)c2cccc(Cl)c2)CCN1C(=O)CC1CCCCC1 (configuration not stated)	inconclusive [rising, single point]	–
Cc1cccc(-c2nnc(SCC#N)n2-c2cccc(Cl)c2)c1	–	inactive: -16.3%
CCn1nc(C)c(C(=O)Nc2cc(Oc3cc(C)cc(C)c3)cc([N+](=O)[O-])c2)c1C	inconclusive [cytotoxic, single point]	–
Cc1ccc(CNC(=O)CS(=O)Cc2nc(-c3cccs3)oc2C)cc1 (configuration not stated)	–	inactive: -9.03%
C/C(Cn1nnc([N+](=O)[O-])n1)=N\NC(=O)c1ccccc1O	inconclusive [cytotoxic, single point]	–
Cc1ccc(NC(=O)C2CCN(S(=O)(=O)c3ccc(N4CCCC4=O)cc3)CC2)cc1Cl	inconclusive [cytotoxic, single point]	–

— PubChem BioAssay AID686971 (National Center for Advancing Translational Sciences (NCATS), 2013)
